Assay results: the supplement of paper PMC12217912
Some of the results follow. The full chains were built here from the parent and the listed change. Values near 0.05 are background.

B1: TEV protease; numbered along this chain (parent)
chain: MGESLFKGPRDYNPISSSICHLTNESDGHTTSLYGIGFGPFIITNKHLFRRNNGTLVVQSLHGVFKVKDTTTLQQHLVDGRDMIIIRMPKDFPPFPQKLKFREPQREERICLVTTNFQTKSMSSMVSDTSCTFPSGDGIFWKHWIQTKDGQCGSPLVSTRDGFIVGIHSASNFTNTNNYFTSVPKNFMELLTNQEAQQWVSGWRLNADSVLWGGHKVFMVKPEEPFQPVKEATQL

Variants of: B1
Test: raw area under fraction-flipped curve 0-4 h after induction (AUC4h, not background-subtracted), DNA-recorder readout of cleavage of the substrate (dimensionless); higher = more cleavage of the substrate by the protease variant
Settings: temperature: 34 °C; time window: 0-4 h after rhamnose induction
Procedure: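 In vivo DNA recorder in E. coli TOP10(DE3) ΔrhaA at 34 °C. Each TEVp single-site mutant (parent TEVp 0) is paired with a single-site variant of the 7-mer TEVs (canonical ENLYFQ|S). The substrate sits between flexible linkers in a Bxb1-sfGFP-TEVs-SsrA fusion, so cleavage stabilises Bxb1 and speeds flipping of a recombination array, read by NGS. The value is the raw area under the fraction-flipped curve over 0-4 h after rhamnose induction (AUC4h), with ≥20 reads per time point. It is not background-subtracted; inactive controls average about 0.047.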
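Note: Bxb1 expression induced with 0.2% (w/v) L-rhamnose at OD600 near 0.5, cultures sampled hourly, flipped fraction per protease–substrate barcode pair counted by paired-end Illumina sequencing.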

| Variant | area with substrate ENAYFQS | area with substrate ENCYFQS | area with substrate ENDYFQS | area with substrate ENFYFQS | area with substrate ENHYFQS | area with substrate ENMYFQS | area with substrate ENPYFQS | area with substrate ENQYFQS | area with substrate ENTYFQS | area with substrate ENVYFQS | area with substrate ENYYFQS | area with substrate ENEYFQS | area with substrate ENGYFQS | area with substrate ENIYFQS | area with substrate ENNYFQS | area with substrate ENRYFQS | area with substrate ENSYFQS | area with substrate ENKYFQS | area with substrate ENWYFQS |
| --- | --- | --- | --- | --- | --- | --- | --- | --- | --- | --- | --- | --- | --- | --- | --- | --- | --- | --- | --- |
| G37D | 0.0345 | 0.0512 | 0.0235 | 0.0453 | 0.0422 | 0.0452 | 0.0399 | 0.0441 | 0.0621 | 0.0465 | 0.0504 | – | – | – | – | – | – | – | – |
| F41E | 0.0494 | 0.0276 | 0.0584 | 0.0488 | 0.0441 | 0.0483 | – | – | 0.0493 | 0.0482 | 0.0434 | 0.0661 | 0.0501 | 0.0544 | 0.0467 | 0.0463 | 0.0517 | – | – |
| F41M | 0.059 | 0.0653 | 0.055 | 0.0783 | 0.0768 | 0.0775 | – | 0.0622 | 0.0687 | 0.0651 | – | 0.0557 | – | 0.112 | 0.0373 | 0.0634 | 0.0574 | 0.0575 | – |
| F41Y | 0.0647 | 0.0794 | 0.0704 | 0.0639 | – | 0.123 | 0.055 | 0.0648 | 0.07 | 0.0743 | 0.0693 | 0.0493 | 0.0576 | 0.108 | 0.0569 | 0.0549 | 0.0541 | – | 0.0764 |
| K46G | 0.0622 | 0.0596 | 0.0566 | 0.0765 | 0.0536 | 0.0678 | 0.055 | 0.0593 | 0.0596 | 0.064 | – | 0.0596 | 0.0648 | 0.0874 | 0.0662 | 0.0458 | – | 0.0409 | 0.0339 |
| H47T | 0.0676 | 0.0598 | 0.0698 | 0.0608 | 0.046 | – | 0.057 | 0.0517 | – | 0.0776 | – | 0.0557 | – | 0.0645 | – | – | 0.065 | 0.0507 | 0.036 |
| F49L | 0.0547 | 0.0658 | 0.0382 | – | – | – | 0.0583 | 0.0462 | – | – | – | – | – | – | – | 0.0586 | 0.0583 | 0.0623 | – |
| F49N | 0.055 | – | 0.057 | 0.0571 | – | 0.0506 | 0.0381 | 0.0636 | 0.0632 | – | 0.0544 | 0.0721 | 0.0523 | – | 0.054 | 0.0558 | 0.0521 | 0.0649 | – |
| F49T | 0.0565 | 0.0775 | 0.0614 | – | 0.0528 | 0.0556 | – | 0.0568 | 0.0734 | 0.0599 | 0.0481 | 0.0704 | 0.0521 | – | 0.0558 | 0.0495 | 0.0541 | 0.0573 | 0.0555 |
| R50A | 0.0814 | 0.0646 | 0.0608 | 0.0663 | 0.0648 | – | 0.0533 | 0.064 | 0.0516 | – | 0.0585 | 0.0757 | 0.0672 | 0.127 | 0.0659 | 0.0484 | 0.0732 | 0.0732 | – |
| R50S | 0.0431 | – | – | – | – | – | – | 0.0604 | – | – | 0.0441 | – | – | 0.0996 | – | 0.0558 | 0.0231 | 0.0669 | – |
| R51D | 0.0536 | 0.0695 | – | – | – | – | – | 0.0561 | – | 0.0937 | – | 0.0581 | – | – | – | – | 0.0656 | 0.0743 | 0.063 |
| R51E | 0.0611 | 0.0662 | 0.0567 | 0.0666 | 0.0602 | 0.0947 | – | 0.0663 | 0.0634 | 0.073 | 0.0566 | 0.0611 | 0.0745 | – | 0.0579 | – | – | – | 0.0631 |
